Hit rate of the full screen: of about 310,000 compounds, about 14,000 (4.5%) showed an effect of 50% or more. Effects have a minus sign here. The list shows a part of the results.
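Note: peak tail current of the secondary pulse compared with the same well before compound.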

Chain of human ether-à-go-go-related gene (hERG) potassium channel (Q12809 whole entry, looked up): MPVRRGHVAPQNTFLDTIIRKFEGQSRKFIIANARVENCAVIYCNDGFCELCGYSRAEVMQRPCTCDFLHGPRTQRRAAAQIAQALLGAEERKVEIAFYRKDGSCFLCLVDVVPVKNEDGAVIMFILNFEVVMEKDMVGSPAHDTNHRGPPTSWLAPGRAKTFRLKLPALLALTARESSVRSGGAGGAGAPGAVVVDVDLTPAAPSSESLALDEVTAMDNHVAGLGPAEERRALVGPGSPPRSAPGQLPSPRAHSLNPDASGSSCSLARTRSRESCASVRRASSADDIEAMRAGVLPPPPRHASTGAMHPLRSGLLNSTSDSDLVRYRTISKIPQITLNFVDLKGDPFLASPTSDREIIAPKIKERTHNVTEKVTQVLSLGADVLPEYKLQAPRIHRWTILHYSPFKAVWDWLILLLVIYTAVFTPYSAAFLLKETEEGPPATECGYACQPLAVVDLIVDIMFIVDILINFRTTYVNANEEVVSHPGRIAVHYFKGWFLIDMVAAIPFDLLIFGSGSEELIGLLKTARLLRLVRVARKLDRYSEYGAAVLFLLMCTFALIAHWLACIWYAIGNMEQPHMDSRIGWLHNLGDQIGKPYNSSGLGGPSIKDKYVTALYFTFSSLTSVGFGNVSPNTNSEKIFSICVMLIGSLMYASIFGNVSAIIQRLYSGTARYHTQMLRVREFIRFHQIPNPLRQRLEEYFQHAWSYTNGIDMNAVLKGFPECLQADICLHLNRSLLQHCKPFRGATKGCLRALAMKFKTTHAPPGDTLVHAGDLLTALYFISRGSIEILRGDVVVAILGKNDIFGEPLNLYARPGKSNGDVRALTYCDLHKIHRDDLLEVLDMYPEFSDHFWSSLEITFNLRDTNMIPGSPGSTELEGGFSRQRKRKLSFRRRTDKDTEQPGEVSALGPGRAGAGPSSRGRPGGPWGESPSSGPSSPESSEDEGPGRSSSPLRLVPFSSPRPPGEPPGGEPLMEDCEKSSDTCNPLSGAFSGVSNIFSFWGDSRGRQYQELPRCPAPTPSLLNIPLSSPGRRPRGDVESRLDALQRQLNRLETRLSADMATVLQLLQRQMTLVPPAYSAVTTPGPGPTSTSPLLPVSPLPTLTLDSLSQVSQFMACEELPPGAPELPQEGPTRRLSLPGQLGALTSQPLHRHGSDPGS

The assay has as its target human ether-à-go-go-related gene (hERG) potassium channel (human, UniProt Q12809). The assay is described as follows: primary screen, population patch clamp on CHO cells stably expressing hERG.
Take `CCn1nnnc1-c1ccc(OC)c(S(=O)(=O)N2CCCCC2)c1`: the “hERG current change (%, negative = inhibition) at 10uM” value is on record as -21.6%.
With `Cc1cccc(OCC(=O)N=Nc2c(O)[nH]c3ccc([N+](=O)[O-])cc23)c1`, the “hERG current change (%, negative = inhibition) at 10uM” value is -2.59%.
As for `CCOc1ccc2ccccc2c1/C=N/NC(=O)CNC(=O)Cc1ccccc1`, the figure is 10.4%; as for `O=C(COc1ccc2ccccc2c1)Nc1nccs1`, 0.185%.
Next, `O=C(CSc1nnc(-c2ccccc2)n1-c1ccccc1)c1ccc[nH]1`: 16.4%.
As for `O=C(N/N=C/c1ccc(OC(=O)c2ccc([N+](=O)[O-])cc2)cc1)c1cccnc1`, the “hERG current change (%, negative = inhibition) at 10uM” value worked out at 21.6%.
`C=CCn1c(SCC(=O)c2cc(C)n(C(C)COC)c2C)nc2sc(C)c(C)c2c1=O` (centres unmarked): the “hERG current change (%, negative = inhibition) at 10uM” value is -15.4%.
Regarding `Cc1ccc2ccc(C(Nc3cccc(C(F)(F)F)c3)c3cccnc3)c(O)c2n1` (centres unmarked), the “hERG current change (%, negative = inhibition) at 10uM” value is 11.9%.
As for `COc1ccc(S(=O)(=O)NC2CC2)cc1C(=O)N1CCOCC1`, the figure is 25.4%.
As for `CCOCCCNC(=O)C(NC(=O)c1ccc(=O)[nH]c1)c1ccccc1` (centres unmarked), the figure is 1.34%.
For `C/C(=N\NC(=S)NCCc1ccccc1)c1cccc(Br)c1`, the “hERG current change (%, negative = inhibition) at 10uM” value was 25.1%.
As for `COC(=O)c1sccc1NC(=O)Nc1ccccc1OC`, the figure is -41.4%; as for `Cc1nc(N2CCC(C)CC2)c2c(C)c(C(=O)Nc3ccc4c(c3)OCCO4)sc2n1`, 15.2%.
`Clc1ccc(C[n+]2cc(-c3ccccc3)n3c2CCC3)cc1.[Cl-]`: the “hERG current change (%, negative = inhibition) at 10uM” value is -33.5%.
In the case of `Cc1cc(NC(=O)Nc2cccc(Cl)c2)n(C(C)(C)C)n1`, the “hERG current change (%, negative = inhibition) at 10uM” value is on record as 1.73%.
For `O=C(Nc1ccc(C(=O)O)cc1)/C(=C\c1ccc(F)cc1)NC(=O)c1ccco1`, the “hERG current change (%, negative = inhibition) at 10uM” value stood at 23.7%.
Consider `CN(C)C(=O)c1ccc(Oc2ccc(C(=O)N(C)C)cc2)cc1`, for which the “hERG current change (%, negative = inhibition) at 10uM” value is -1.46%.
For the compound `O=C(O)c1ccc([N+](=O)[O-])c2c1C(=O)c1ccccc1C2=O`, the “hERG current change (%, negative = inhibition) at 10uM” value was determined as 23.5%.
With `CCOC(=O)C1(CC2CC2)CCN(C(=O)c2cc(C)nc3ccc(CC)cc23)CC1`, the “hERG current change (%, negative = inhibition) at 10uM” value is -32.4%.
Turning to `OCC1(CCOc2ccccc2)CCN(Cc2ccc3cccc(F)c3n2)CC1`, the “hERG current change (%, negative = inhibition) at 10uM” value was -83%.
For the compound `COc1cc(C)c(C)cc1S(=O)(=O)N1CCCCC1c1cccnc1` (centres unmarked), the “hERG current change (%, negative = inhibition) at 10uM” value is listed as -3.94%.
Take `COc1ccc(CNC(=O)C(C)OC(=O)c2cccs2)cc1` (centres unmarked): the “hERG current change (%, negative = inhibition) at 10uM” value is reported as 1.28%.
Take `CCNC(=O)N1CCN(C(=O)NCC)CC1`: the “hERG current change (%, negative = inhibition) at 10uM” value is given as 15.7%.
As to `O=C(CSc1nc(-c2ccc(F)cc2)cc(C(F)(F)F)n1)NCc1cccs1`, the “hERG current change (%, negative = inhibition) at 10uM” value was 19.8%.
Next, `CNC(=O)NC(=O)CSc1nnc(-c2ccco2)n1-c1ccccc1`: 6.91%; `COc1ccc(C(=O)CSc2cc(C)[nH]c(=O)n2)cc1`: 20.4%.
Next, `Cc1ccccc1Nc1scc(-c2ccc(Br)cc2)[n+]1-c1ccccc1C.[Br-]`: 9.01%; `COc1ccc(/C=C2/C(=N)N3N=C(CC(=O)N4CCCC4)SC3=NC2=O)cc1`: 4.9%; `CN=C(NC)SC1CC(=O)N(c2ccccc2)C1=O` (centres unmarked): 3.13%.
Next, `[O-][Cl+3]([O-])([O-])[O-].c1ccc(-c2[nH]c[n+](CC3CO3)c2-c2ccccc2)cc1` (centres unmarked): 10.6%; `CC(=O)NC12CC3CC(CC(CC(=O)O)(C3)C1)C2`: -2.25%.
Regarding `CCOc1ccc(OCC)c(S(=O)(=O)NCc2ccccn2)c1`, the “hERG current change (%, negative = inhibition) at 10uM” value is -1.02%.
Next, `CCOC(=O)N(C)c1ccc(C(O)(C(F)(F)F)C(F)(F)F)cc1`: 23.3%; `Cc1cc(Cl)ccc1C(=O)C1CCCN(C(=O)c2ccoc2)C1` (centres unmarked): -3.62%; `O=C(Cn1nc([N+](=O)[O-])nc1Br)NC1CCCCC1`: 18.2%.
Next, `O=C(Nc1nccs1)c1ccc([N+](=O)[O-])cc1Cl`: 4.39%.
In the case of `CCOP(=O)(OCC)C(NC(=O)c1ccc(C)cc1)=C(Cl)Cl`, the “hERG current change (%, negative = inhibition) at 10uM” value amounted to 2.23%.
As for `CC1CCC2(CC1)NC(=O)N(CC(=O)Nc1cccnc1Cl)C2=O` (centres unmarked), the “hERG current change (%, negative = inhibition) at 10uM” value came to 5.97%.
Next, `Cc1cc(OC(=O)c2ccc(S(=O)(=O)N(C)C)cc2)c([N+](=O)[O-])c(=O)[nH]1`: 10.6%; `CCCCn1c(N)c(N(CC)C(=O)c2cccc(OC)c2)c(=O)[nH]c1=O`: 1.65%.
Next, `Cc1ccc(OCC(=O)OCC(=O)c2ccccc2)cc1C`: 12.9%; `Cc1ccc(S(=O)(=O)CCC(=O)OCn2nnc3ccccc3c2=O)cc1`: 4.9%.
`Cn1c(=O)n(C)c2cc(NS(=O)(=O)c3ccc(Cl)s3)ccc21`: the “hERG current change (%, negative = inhibition) at 10uM” value is -1.37%.
As for `CCC(C)(C)C1CCC2(CC1)NC(=O)N(CC(=O)NCCc1ccc(OC)c(OC)c1)C2=O` (centres unmarked), the figure is -19%; as for `O=C(Nc1nccs1)c1ccc(Cl)cc1[N+](=O)[O-]`, -9.1%; as for `CC1CCN(S(=O)(=O)c2nnc(NC(=O)c3cccc(Cl)c3)s2)CC1`, 7.01%.
As for `COC(=O)c1ccc(N2CCOCC2)c(NC(=O)c2ccco2)c1`, the figure is 1.95%; as for `CC(=O)N(NC(=O)c1ccccc1Cl)C1CC(=O)N(c2ccc(C)cc2)C1=O` (centres unmarked), 14.1%.
As for `N#Cc1c(N)nc2c(c1N)CC(CCl)O2` (centres unmarked), the figure is 2.98%; as for `COc1cccc(CN(Cc2ccco2)S(=O)(=O)c2ccc(S(=O)(=O)NCc3ccccc3)cc2)c1OC`, 7.41%.
On to `O=C(Nc1cc(Cl)cc(Cl)c1)Nc1cnccn1`, for which the “hERG current change (%, negative = inhibition) at 10uM” value came out at 5.58%.
As for `CCCCCOCC1CC(C/C(C)=N/Nc2nc(-c3ccccc3)cs2)C(=O)O1` (centres unmarked), the figure is -1.48%.
Next, `COc1ccc(S(=O)(=O)N2CCN(Cc3cc(=O)n4ccccc4n3)CC2)cc1`: -31.4%.
Next, `N#Cc1ccccc1CSc1ccc(-c2nc3ccccc3[nH]2)cn1`: 16.4%.
`O=C(CNS(=O)(=O)c1ccc(Br)s1)NCC1COc2ccccc2O1` (centres unmarked): the “hERG current change (%, negative = inhibition) at 10uM” value is reported as 0.753%.
Next, `N=c1c(C(=O)NC2CCCCC2)cc2c(=O)n3ccccc3nc2n1CCc1ccccc1`: -81.1%.

The values above are taken from paper PMC4336329 (PLoS ONE, 2015).
